Results on 2 molecules are retold here after publication PMC6726739.

No constants are given. Whether binding was seen depends on the method and setting. For part of these data: In cells and extracts the contact can be indirect. Some results given as binding are weak or reduced against the parent protein; the word gives no strength. Sequences can lack the tags named with a protein.

In assay [1] the target is GST-AvrPtoB_(1-410) (Pseudomonas syringae pv. tomato DC3000) (UniProt Q8RSY1). As to the kind of experiment: pull-down; equimolar GST fusions from E. coli incubated with extracts of N. benthamiana leaves expressing EXO70B1-GFP, 4 °C, 4 h; GST binding beads 2 h; three washes with GST washing buffer (1.4 M NaCl, pH 7.3, 5 mM DTT); anti-GFP blot; only the target purified.
Assay [2] addresses GST-AvrPtoB^F479A (Pseudomonas syringae pv. tomato DC3000) (UniProt Q8RSY1). Described as above.
The target of assay [3] is AvrPtoB^F479A fused to the Gal4 DNA binding domain (Pseudomonas syringae pv. tomato DC3000) (UniProt Q8RSY1). Briefly: two-hybrid; Matchmaker GAL4 Two-Hybrid System 3, yeast AH109; effectors and AvrPtoB forms in pGBKT-7 (BD), plant proteins in pGADT-7 (AD); growth on SD-Trp/-Leu/-His/-Ade, 5 days.
In assay [4] the target is HopH1 in pGBKT-7 (Pseudomonas syringae pv. tomato DC3000) (UniProt Q88A09). Described as above.
The target of assay [5] is T1, HopY1 in pGBKT-7 (Pseudomonas syringae pv. tomato DC3000) (UniProt Q88BF6).
T1 sequence: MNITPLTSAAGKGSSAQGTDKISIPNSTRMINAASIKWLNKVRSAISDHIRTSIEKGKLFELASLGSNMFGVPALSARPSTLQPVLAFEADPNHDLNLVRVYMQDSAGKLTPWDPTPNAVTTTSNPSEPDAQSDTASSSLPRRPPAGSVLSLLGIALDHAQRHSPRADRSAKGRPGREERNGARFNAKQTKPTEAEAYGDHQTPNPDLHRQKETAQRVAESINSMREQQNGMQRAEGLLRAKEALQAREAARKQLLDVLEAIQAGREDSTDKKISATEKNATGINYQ
Described as above.

Assay [6] deals with T2, HopK1 in pGBKT-7 (Pseudomonas syringae pv. tomato DC3000) (UniProt Q88BH0).
T2 sequence: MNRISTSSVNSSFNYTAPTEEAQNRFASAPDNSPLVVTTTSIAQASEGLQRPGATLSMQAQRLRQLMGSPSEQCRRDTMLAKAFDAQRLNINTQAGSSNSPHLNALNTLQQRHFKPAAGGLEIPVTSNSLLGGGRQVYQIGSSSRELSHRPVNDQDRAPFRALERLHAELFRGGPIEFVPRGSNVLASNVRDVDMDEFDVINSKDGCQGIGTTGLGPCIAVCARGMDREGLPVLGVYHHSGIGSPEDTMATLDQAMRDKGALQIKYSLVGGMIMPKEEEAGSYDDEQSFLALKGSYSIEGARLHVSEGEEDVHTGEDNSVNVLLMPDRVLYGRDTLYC
Described as above.

In assay [7] the target is AvrPtoB_(1-387) fused to the Gal4 DNA binding domain (Pseudomonas syringae pv. tomato DC3000) (UniProt Q8RSY1). The description is as above.
Assay [8] deals with AvrPtoB_(1-205) fused to the Gal4 DNA binding domain (Pseudomonas syringae pv. tomato DC3000) (UniProt Q8RSY1). Described as above.
The target in assay [9] is AvrPtoB_(1-307) fused to the Gal4 DNA binding domain (Pseudomonas syringae pv. tomato DC3000) (UniProt Q8RSY1). Described as above.
In assay [10] the target is AvrPtoB_(308-553) fused to the Gal4 DNA binding domain (Pseudomonas syringae pv. tomato DC3000) (UniProt Q8RSY1). Described as above.
Assay [11] concerns the target HopO1-1 in pGBKT-7 (Pseudomonas syringae pv. tomato DC3000) (UniProt Q88BP8). The assay is described as above.
The target of assay [12] is AvrPtoB_(1-410) fused to the Gal4 DNA binding domain (Pseudomonas syringae pv. tomato DC3000) (UniProt Q8RSY1). Described as above.

B1: EXO70B1-GFP (protein, UniProt Q9FGH9 1-624)
chain: MAENGEEKLLAVARHIAKTLGHNESMADDILQIFSNFDGRFSREKLAEGQAGEDGSGVATLERALNSIDGQISRFVAADQPIWADPADSAAFLDTIDELVAIIREWSPMASEKPIGICLTRADDMMQQAMFRIEEEFRSLMERGAESFGLNPQGDAGAMNHRFDSEEEEDDDRDFNNGDDIQIPVAQPLTDYDLIIDALPSATINDLHEMAKRMLGAGFGKACSHVYSSCRREFLEESMSRLGLQKLSIEEVHKMPWQELEDEIDRWIKAANVALRILFPSERRLCDRVFFGFSSAADLSFMEVCRGSTIQLLNFADAIAIGSRSPERLFKVLDVFETMRDLMPEFESVFSDQFCSVLRNEAVTIWKRLGEAIRGIFMELENLIRRDPAKAAVPGGGLHPITRYVMNYLRAACRSRQTLEQVFEESNGVPSKDSTLLTVQMSWIMELLESNLEVKSKVYKDPALCYVFLMNNGRYIVQKVKDGDLGLLLGDDWIRKHNVKVKQYHMNYQRSSWNKMLGLLKVDNTAAGMNGLGKTMKEKLKQFNIQFDEICKVHSTWVVFDEQLKEELKISLARLLVPAYGSFIGRFQNLGDIGKNADKYIKYGVEDIEARINELFKGTTTGRK
With B1, the binding result in assay [1] and in assay [2] was “binds” in each case.

B2: EXO70B1, full length, fused to the Gal4 transactivation domain (protein, UniProt Q9FGH9 1-624)
chain: MAENGEEKLLAVARHIAKTLGHNESMADDILQIFSNFDGRFSREKLAEGQAGEDGSGVATLERALNSIDGQISRFVAADQPIWADPADSAAFLDTIDELVAIIREWSPMASEKPIGICLTRADDMMQQAMFRIEEEFRSLMERGAESFGLNPQGDAGAMNHRFDSEEEEDDDRDFNNGDDIQIPVAQPLTDYDLIIDALPSATINDLHEMAKRMLGAGFGKACSHVYSSCRREFLEESMSRLGLQKLSIEEVHKMPWQELEDEIDRWIKAANVALRILFPSERRLCDRVFFGFSSAADLSFMEVCRGSTIQLLNFADAIAIGSRSPERLFKVLDVFETMRDLMPEFESVFSDQFCSVLRNEAVTIWKRLGEAIRGIFMELENLIRRDPAKAAVPGGGLHPITRYVMNYLRAACRSRQTLEQVFEESNGVPSKDSTLLTVQMSWIMELLESNLEVKSKVYKDPALCYVFLMNNGRYIVQKVKDGDLGLLLGDDWIRKHNVKVKQYHMNYQRSSWNKMLGLLKVDNTAAGMNGLGKTMKEKLKQFNIQFDEICKVHSTWVVFDEQLKEELKISLARLLVPAYGSFIGRFQNLGDIGKNADKYIKYGVEDIEARINELFKGTTTGRK
Turning to B2, the binding entry in [3] is on record as “binds”; in assay [4], “binds”; in assay [5] it was “binds”; in assay [6] it was “binds”; in [7], “binds”; in assay [8], “no binding”. Besides, the binding result is “binds” in assay [9], “no binding” in [10], “binds” in assay [11] and “binds” in assay [12].
